# Experimental data: PubChem BioAssay AID1030 (National Center for Advancing Translational Sciences (NCATS), 2008)
# The whole screen tested about 220,000 compounds, of which about 16,000 (7.3%) were called active. The inconclusive results got no clear call from the source; some entries with a clear call stand among them for comparison. The call rests on the fitted dose curve; in most records, active means well fitted inhibition curve with a large enough effect (not every such curve was filed as active); inconclusive means small, poorly fitted or top-dose-only effect, or another doubt; inactive means no such curve, though single readings can be large or run the other way. No potency is given beside an inconclusive call; the fits are too rough.
# Molecular target: Aldehyde dehydrogenase 1A1 (Homo sapiens) (UniProt P00352)
# Sequence of UniProt P00352 (P00352 whole entry, looked up): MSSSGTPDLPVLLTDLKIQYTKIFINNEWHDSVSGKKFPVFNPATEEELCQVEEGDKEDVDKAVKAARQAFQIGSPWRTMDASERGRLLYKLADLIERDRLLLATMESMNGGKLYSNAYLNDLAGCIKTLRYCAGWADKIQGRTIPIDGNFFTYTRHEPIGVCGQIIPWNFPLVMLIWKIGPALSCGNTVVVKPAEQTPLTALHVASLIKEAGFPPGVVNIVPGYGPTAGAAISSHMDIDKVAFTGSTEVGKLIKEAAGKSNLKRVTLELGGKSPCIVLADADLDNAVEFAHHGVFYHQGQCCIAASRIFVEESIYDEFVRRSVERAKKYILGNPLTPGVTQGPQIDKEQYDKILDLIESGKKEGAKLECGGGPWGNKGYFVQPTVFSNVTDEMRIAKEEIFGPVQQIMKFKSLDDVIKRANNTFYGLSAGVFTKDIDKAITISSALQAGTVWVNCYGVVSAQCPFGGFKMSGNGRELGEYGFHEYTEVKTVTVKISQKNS
# Experiment: qHTS Assay for Inhibitors of Aldehyde Dehydrogenase 1 (ALDH1A1)
# Details: Purified ALDH1A1, NADH fluorescence, propionaldehyde substrate; series mostly up to 75.3 µM
# Potency means the concentration at half of the fitted maximal effect; tags describe the fitted curve by direction and shape.
row,SMILES,Potency
1,Cc1occc1C(=O)Nc1sc2c(c1C(N)=O)CCCCC2,"inconclusive [inhibitor, single point]"
2,COc1cccc(/C=N/n2cncn2)c1OCC#N,"inconclusive [inhibitor, single point]"
3,O=C(Nc1ccc(Br)cn1)c1ccc([N+](=O)[O-])o1,inactive
4,CCOC(=O)C1CCCN(c2ccc(NC(=O)c3snc4c(=O)[nH]cnc34)cc2)C1 (configuration not stated),inactive
5,COc1cc(/C=C/C(=O)Nc2cc(C(F)(F)F)ccc2Cl)cc(OC)c1OC,"inconclusive [inhibitor, single point]"
6,COC(=O)C1(C(C)=O)CC2=CC[C@@H]3C(=O)N(c4ccccc4)C(=O)[C@@H]3[C@@H]2Cc2ccccc2[C@@H]1C[N+](=O)[O-] (some centres not stated),inactive
7,COc1ccc(Br)cc1/C=N/NC(=O)c1nc(-c2ccccc2)n2c1CCCCC2,inactive
8,CC(=O)c1c(C)[nH]c(C(=O)OCC(=O)c2c(N)n(C)c(=O)n(C)c2=O)c1C,inactive
9,Cc1ccc2[nH]c(=O)c(CN(Cc3ccco3)C(=O)CN3CCCC(C)C3)cc2c1 (configuration not stated),"inconclusive [inhibitor, partial curve]"
10,COC(=O)C/C=C/[C@@H](C)[C@H](NC(=O)OCC(Cl)(Cl)Cl)c1cccc(OC)c1,inactive
11,CCCn1nc(NC(=O)c2ccco2)c2cc3ccc(C)cc3nc21,"inconclusive [inhibitor, single point]"
12,CC1CCCC(NC(=O)c2cccc(N3CCCC3=O)c2)C1C (configuration not stated),inactive
13,O=C(Cc1cccs1)N/N=C/C=C/c1ccco1,active: 3.98 µM
14,N#CCSc1nc(N)c(C#N)c(C2CCCCC2)c1C#N,"inconclusive [inhibitor, single point]"
15,OCCC1CN(Cc2ccc(-c3ccco3)cc2)CCN1Cc1ccsc1 (configuration not stated),"inconclusive [inhibitor, single point]"
16,COc1ccc(-c2nc(-c3cccs3)c(-c3cccs3)[nH]2)cc1OC,"inconclusive [inhibitor, partial curve]"
17,COc1ccccc1N1CCN(C(=O)c2cn(-c3ccccc3)nc2-c2cccnc2)CC1,"inconclusive [inhibitor, single point]"
18,COc1ccccc1N1CCN(C(=O)CN(C)S(=O)(=O)c2ccc3c(c2)c(=O)n(C)c(=O)n3C)CC1,inactive
19,COc1ccc(-c2cc(C(F)F)nc(-n3nc(C)cc3C)n2)cc1,"inconclusive [inhibitor, partial curve]"
20,CCn1cc(C(=O)NC2CC3CCC2C3)c(=O)c2ccc(C)nc21 (configuration not stated),"inconclusive [inhibitor, partial curve]"
21,CCOC(=O)N1CCN(C(=S)NC(=O)c2ccc(Br)cc2)CC1,"inconclusive [inhibitor, single point]"
22,CCOC(=O)CSc1nc2sc3c(c2c(=O)[nH]1)CC(C)(CC)OC3 (configuration not stated),"inconclusive [inhibitor, single point]"
23,CCOC(=O)CC1C(=O)NCCN1C(=O)c1cc2c(=O)n3cccc(C)c3nc2s1 (configuration not stated),"inconclusive [inhibitor, partial curve]"
24,Cc1ccc(Cn2cc(/C=N/Nc3ccc([N+](=O)[O-])cn3)c3ccccc32)cc1,active: 10 µM

row,SMILES,Potency
1,O=C(CSc1nnc(Cc2ccccc2)n1-c1ccc(F)cc1)N1CCOCC1,inactive
2,C=C(C)Cn1c(-c2ccncc2)n[nH]c1=S,"inconclusive [inhibitor, single point]"
3,CCC(=O)N1CCc2cc(Br)cc(S(=O)(=O)NCC3CCCO3)c21 (configuration not stated),"inconclusive [inhibitor, single point]"
4,COCCNC(=S)N/N=C(\C)c1ccc(C)c([N+](=O)[O-])c1,inactive
5,COc1ccc(OC)c(-n2c(SCC(=O)Nc3cccc(S(N)(=O)=O)c3)nc3ccccc3c2=O)c1,inactive
6,CCn1c(=N)c(S(=O)(=O)c2ccc(C)cc2)cc2c(=O)n3ccccc3nc21,"inconclusive [inhibitor, partial curve]"
7,COCCN1Cc2c(sc(C)c2C)N(C(=O)c2ccccc2)C1,inactive
8,CCN1CCCC1CNC(=O)C(=O)Nc1ccccc1OC (configuration not stated),inactive
9,COC(=O)C(Cc1ccccc1)NC(=O)c1cc(=O)[nH]c2ccccc12 (configuration not stated),"inconclusive [inhibitor, single point]"
10,O=C(Cc1ccccc1)NCc1ccncc1,"inconclusive [inhibitor, single point]"
11,CCCCn1c(CN2CCN(C(=O)c3ccco3)CC2)nc2c1c(=O)n(C)c(=O)n2C,active: 22.4 µM
12,COCCCn1c(=N)c(C(=O)NCc2ccc3c(c2)OCO3)cc2c(=O)n3ccccc3nc21,"inconclusive [inhibitor, partial curve]"
13,Cc1ccc[n+](C(C)C(=O)Nc2ccc(C)c([N+](=O)[O-])c2)c1 (configuration not stated),inactive
14,CCN1CCN(C(=O)c2cc3cc4ccc(OC)cc4nc3s2)CC1,"inconclusive [inhibitor, partial curve]"
15,CCOC(=O)c1cc(-c2ccc3c(c2)OCO3)nc2onc(C)c12,"inconclusive [inhibitor, single point]"
16,COc1ccc(N2CCN(C(=O)c3ccc4c(c3)[nH]c(=S)n3c5ccccc5nc43)CC2)cc1,"inconclusive [inhibitor, partial curve]"
17,CCOCC(=O)Nc1ccc(OCc2ccccc2)cc1,"inconclusive [inhibitor, single point]"
18,CCOC(=O)C1=C(CSc2nc3c(cc2C#N)CCC3)OC(N)=C(C#N)C1c1ccccc1 (configuration not stated),inactive
19,COc1ccccc1/C=N/NC(=O)c1csc(C)c1C,inactive
20,O=C(NC(=S)N1CCN(Cc2ccccc2)CC1)c1cccnc1,inactive
21,CCOC(=O)c1c(-c2ccc(Cl)cc2)c(C#N)c(=O)n(N)c1N,"inconclusive [inhibitor, single point]"
22,CNc1ccc(O)cc1,active: 2.24 µM
23,C=CCNC(=S)NNc1ncnc2sc3c(c12)CC(C)(C)OC3,active: 1.41 µM
24,CCn1c(SCC(=O)Nc2nccs2)nnc1-c1ccc(S(=O)(=O)N2CCCCC2)cc1,"inconclusive [inhibitor, single point]"

row,SMILES,Potency
1,CCOc1ccc(C2c3c(oc4ccccc4c3=O)C(=O)N2CCCN2CCOCC2)cc1OCC (configuration not stated),"inconclusive [inhibitor, single point]"
2,O=C(CSc1ccccc1)Nc1nnc(COc2ccc(Cl)cc2)s1,active: 3.16 µM
3,CC(C)(C)c1ccc(C(=O)N/N=C2\C3CN4CCN(C3)CC2(c2ccccc2)C4)cc1,"inconclusive [inhibitor, single point]"
4,CCCCC(=O)/C=C/n1c(=S)oc2ccccc21,active: 11.2 µM
5,CC1CCN(CCCn2c(=S)[nH]c3c(sc4ccccc43)c2=O)CC1,"inconclusive [inhibitor, single point]"
6,NNc1nnc(-c2ccccc2)c(-c2ccccc2)n1,active: 12.6 µM
7,Cc1nn(S(=O)(=O)c2cccc([N+](=O)[O-])c2)c(C)c1Br,"inconclusive [inhibitor, single point]"
8,O=C1C2C(C(=O)N1/N=C/c1cc(Br)cc([N+](=O)[O-])c1O)C1C=CC2C12CC2 (configuration not stated),"inconclusive [inhibitor, partial curve]"
9,CN1C(c2ccc(F)cc2)=CS/C1=C(/C#N)c1nnc(N2CCOCC2)n1-c1ccccc1,active: 0.794 µM
10,Cc1ccc(-n2c(COc3ccccc3)n[nH]c2=S)cc1,"inconclusive [inhibitor, single point]"
11,Cc1ccc(-n2nc3c(c2NC(=O)/C=C\c2ccc4c(c2)OCO4)CSC3)cc1,"inconclusive [inhibitor, single point]"
12,CCN(CC)CCCN1C(=O)C(=O)/C(=C(/O)c2ccc(OC)c(Cl)c2)C1c1ccco1 (configuration not stated),"inconclusive [inhibitor, single point]"
13,O=C(O)[C@H](Cc1ccccc1)NC(=O)N1CCOCC1,inactive
14,CCCCOc1ccc(C(=O)CCN2CCOCC2)cc1,active: 0.282 µM
15,COc1ccc(Cl)cc1NC(=O)CN(C(=O)c1ccco1)C1CCCCC1,active: 0.0398 µM
16,COc1nnc(-c2ccc(N3CCOCC3)c(NC(=O)c3ccc(C)cc3)c2)c2ccccc12,"inconclusive [inhibitor, partial curve]"
17,CCNc1oc(-c2ccc(OC)cc2)nc1S(=O)(=O)c1ccc(Br)cc1,"inconclusive [inhibitor, single point]"
18,COc1ccc(N2CCN(C(=O)C3CCCO3)CC2)cc1 (configuration not stated),"inconclusive [inhibitor, single point]"
19,CN(C)S(=O)(=O)N1CCN(c2ccccc2)CC1,inactive
20,Cc1c(C(=O)N2c3ccccc3Sc3ccccc32)cccc1[N+](=O)[O-],inactive
21,Cc1cccc(C=Nc2ccccc2C(N)=O)c1,"inconclusive [inhibitor, partial curve]"
22,Cc1ccc2nc(-c3ccc(O)cc3)c(Nc3ccc4c(c3)OCCO4)n2c1,"inconclusive [inhibitor, partial curve]"
23,N#Cc1c(N)oc(-c2ccco2)c1-c1ccco1,"inconclusive [inhibitor, partial curve]"
24,CN(C(=O)CSc1nnc(-c2ccccc2)c(-c2ccccc2)n1)C1CCS(=O)(=O)C1 (configuration not stated),"inconclusive [inhibitor, single point]"
